# Assay results as given in PubChem BioAssay AID624296 (National Center for Advancing Translational Sciences (NCATS), 2012).
# Among all 350,000 compounds or so, about 9,900 (2.8%) were called active. The inconclusive results got no clear call from the source; some entries with a clear call stand among them for comparison. Calls come from the whole dose curve; as a rule, active = well fitted activation curve with a large enough effect; inconclusive = small, poorly fitted or top-dose-only effect; inactive = no such curve, though single readings can be large or run the other way. No potency is given beside an inconclusive call; the fits are too rough.
# Experiment: A quantitative high throughput screen for small molecules that induce DNA re-replication in MCF 10a normal breast cells. For activity, positive = re-replication: % of control where 0% means no effect. Note: nearly all actives have a fitted effect of over 50% in size.
# Details: MCF 10A DNA re-replication, Hoechst nuclear intensity, 48 h; activity, positive = re-replication: at 46.1 µM (top of the series)
# Potency is the fitted concentration of half-maximal effect; tags give direction and shape of the fitted curve.
SMILES,"activity, positive = re-replication",Potency
COc1cc(/C=C/C(=O)NC(=O)c2ccccc2O)ccc1O,inactive: -7.86%,–
CC(=O)Oc1cccc(Nc2ncnc3ccccc23)c1,–,"inconclusive [activator, single point]"
COc1cc(CCCN2C(=S)NC[C@@H]2CC2CCCCC2)cc(OC)c1OC,–,"inconclusive [activator, full curve]"
CCOC(=O)c1cccc(NC(=O)c2c(N)n(C)c(=O)[nH]c2=O)c1,–,"inconclusive [activator, partial curve, poor fit]"
C/C(=C\c1ccccc1)C(=O)N1CCN(c2cccc(C(F)(F)F)c2)CC1,–,"inconclusive [activator, partial curve, poor fit]"
COc1ccc(CCn2c(C)cc(C(=O)CSc3nc(N)cc(=O)[nH]3)c2C)cc1,–,"inconclusive [activator, single point]"
O=C(Nc1ccccc1C(=O)Nc1ccccn1)c1cccc([N+](=O)[O-])c1,–,active: 3.66 µM
Cc1c(C)n(C)c2ccc(C(=O)NCCCN3CCCC3)cc12,inactive: 6.07%,–
C#CCOc1c(Cl)cc(C2C3=C(CCCC3=O)N(CC(=O)O)C3=C2C(=O)CCC3)cc1OC,–,active: 20.6 µM
CN(C)c1ccc(/C=N/NC(=O)C(O)(c2ccccc2)c2ccccc2)o1,–,"inconclusive [activator, single point]"
Cn1c(=O)c2c(ncn2CCO)n(C)c1=O,–,"inconclusive [activator, full curve, poor fit]"
Cc1ccccc1-c1nc(-c2ccc(NC(=O)c3cccs3)cc2)no1,–,"inconclusive [activator, partial curve, poor fit]"
N#Cc1nc(-c2cccc3ccccc23)oc1N1CCCCC1,inactive: 8.92%,–
N#Cc1c(SCC(=O)Nc2nncs2)sc2c(O)cc(=O)[nH]c12,–,"inconclusive [activator, partial curve, poor fit]"
CC(C)C(=O)Nc1nnc(SCc2cccc(F)c2)s1,–,"inconclusive [activator, partial curve, poor fit]"
CCSc1nc2sc3c(c2c(=O)n1-c1ccc(OC)cc1)CCN(C)C3,–,"inconclusive [activator, single point]"
COc1ccc(CCNC[C@@H](O)c2ccc(O)cc2)cc1OC,inactive: -3.25%,–
CCN(CC)S(=O)(=O)c1ccc(-c2nnc(SC)o2)cc1,inactive: 2.63%,–
Cc1cccc(NC(=O)c2ccc(COc3ccc4ccccc4c3)o2)n1,–,"inconclusive [activator, single point]"
Fc1ccc(-c2csc(N3CCC(c4ccccc4)C3)n2)cc1 (stereo not given),–,"inconclusive [activator, full curve, poor fit]"
Cc1c(NC2=CC(=O)CC(C)(C)C2)ccc([N+](=O)[O-])c1C,inactive: -9.12%,–
C=CC[C@H](CC(=O)NCCO)C(=O)N[C@@H](COC(=O)[C@@H](CC=C)Cc1ccc(F)cc1)Cc1ccccc1,inactive: 5.27%,–
O=C(NC1=NCCS1)c1cccc(S(=O)(=O)N2CCc3ccccc32)c1,inactive: -3.68% [at 9.22 µM],–
COc1cc(S(=O)(=O)N2CCN(C(=O)C3CC3)CC2)ccc1NC(C)=O,–,"inconclusive [activator, single point]"

SMILES,"activity, positive = re-replication",Potency
CC1=NN(c2nc(-c3ccc(C)cc3)cs2)C(=O)C1N=Nc1ccc(C(N)=O)cc1 (stereo not given),–,"inconclusive [activator, partial curve, poor fit]"
CCN(CC)c1ccc2c(C)c(CN3CCOCC3)c(=O)oc2c1,–,active: 5.8 µM
CCN1CCCC1CNC(=O)c1cc2c(-c3ccc(Cl)cc3)nn(C)c2s1 (stereo not given),–,"inconclusive [activator, single point]"
COc1cc(OC)nc(NC(=S)NC(=O)c2ccccc2)n1,inactive: 5.03%,–
CN1CCN(C(=S)c2cn(Cc3ccccc3)c3ccccc23)CC1,–,"inconclusive [activator, single point]"
Cc1ccc2nc(SCn3nnc4ccccc4c3=O)[nH]c2c1,–,"inconclusive [activator, single point]"
O=C1Nc2cc(C(=O)N3CCc4ccccc4C3)ccc2S/C1=C\c1ccccc1,–,"inconclusive [activator, full curve, poor fit]"
COc1ccc(C(=O)CNc2ccccc2CO)cc1,–,"inconclusive [activator, single point]"
CN(C)/C=C1/C(=O)N(c2ccc([N+](=O)[O-])cc2)N=C1c1ccccc1,–,"inconclusive [activator, single point]"
c1ccc(-n2cnnn2)cc1,inactive: 1.77%,–
C=CCN1C(=O)c2ccc(C(=O)N(C)CC(=O)Nc3ccc(OCC)c(OCC)c3)cc2C1=O,inactive: 0.656%,–
COc1cc(/C=C(\C#N)C(=O)NCC2CCCO2)ccc1OC(=O)c1ccco1 (stereo not given),inactive: -1.01%,–
CCCCCOc1ccc(C(O)C(CN2CCOCC2)c2ccccc2)cc1 (stereo not given),–,"inconclusive [activator, single point]"
CC(C)(C(=O)O)c1ccc([C@H](O)CCCN2CCC(C(O)(c3ccccc3)c3ccccc3)CC2)cc1,inactive: 0.458%,–
CC(=O)OC(C(=O)NCCc1ccccc1)c1cccnc1 (stereo not given),–,"inconclusive [activator, single point]"
Cc1cc(NC(=O)c2cccc(S(=O)(=O)N3CCOCC3)c2)c2ccccc2n1,–,"inconclusive [activator, partial curve, poor fit]"
CCOC(=O)C1=C(C)N=C2c3ccccc3C(=O)C2C1c1ccc(C)cc1 (stereo not given),–,"inconclusive [activator, single point]"
CC(C)Cn1c(N)c(C(=O)COC(=O)Cc2cccc(C(F)(F)F)c2)c(=O)n(C)c1=O,–,"inconclusive [activator, partial curve, poor fit]"
CCOP(=O)(c1ccc(N(C)C)cc1)C(O)c1ccccc1 (stereo not given),–,"inconclusive [activator, partial curve, poor fit]"
Cc1cccc(OCCNC(=S)NC(=O)c2cncc(Br)c2)c1,inactive: -1.27%,–
COc1cc(C)ccc1OCc1cc(C(=O)N2CCN(C3CCCCC3)CC2)no1,–,"inconclusive [activator, single point]"
COc1ccc(S(=O)(=O)N(CC(=O)N2CCOCC2)Cc2ccccc2)cc1C,inactive: -7.09%,–
O=C(NCc1ccccc1F)c1ccc2c(c1)OCO2,inactive: 0.591%,–
Cc1ccc2cc(C)c(SCC(=O)NCC3CCCO3)nc2c1 (stereo not given),–,"inconclusive [activator, single point]"

SMILES,"activity, positive = re-replication",Potency
O=S(=O)(Nc1cc(S(=O)(=O)N2CCOCC2)ccc1N1CCOCC1)c1ccc2c(c1)OCCO2,–,"inconclusive [activator, full curve, poor fit]"
O=C(CN1CCN(c2nc(-c3ccc(F)cc3)cs2)CC1)NCc1ccc2c(c1)OCO2,–,"inconclusive [activator, partial curve, poor fit]"
Cc1cccc(-n2ncc3c2CCCC3NC(=O)CN2CCCC2=O)c1C (stereo not given),–,"inconclusive [activator, full curve, poor fit]"
CCOC(=O)COc1ccccc1/C=C\[N+](=O)[O-],–,"inconclusive [activator, full curve]"
Cn1c(SCC(=O)N(Cc2ccccc2)C(C)(C)C)nc2ccccc21,–,"inconclusive [activator, full curve, poor fit]"
COc1cc(C(=O)N/N=C(\c2ccccc2)c2ccccn2)cc(OC)c1OC,–,active: 18.4 µM
COc1cccc2cc(C(=O)Nc3ccccc3C)/c(=N/O)oc12,inactive: 29.8%,–
NNC(=S)Nc1ccc(S(=O)(=O)N2CCCCC2)cc1,–,"inconclusive [activator, single point]"
CC(C)C[C@H](NC(=O)c1nc[nH]c1C(=O)NCc1ccccc1)C(=O)OC(C)(C)C,–,"inconclusive [activator, single point]"
O=[N+]([O-])c1cccc(-c2nc(NCc3ccccc3)c3ccccc3n2)c1,inactive: -1.71%,–
CCCCNC(=O)N1CCC(CCC(=O)N(C)Cc2ccccc2)CC1,–,"inconclusive [activator, single point]"
CC1=C(C(=O)Nc2ccccc2F)C(c2ccsc2)C2=C(CC(c3ccccc3)CC2=O)N1 (stereo not given),–,"inconclusive [activator, single point]"
CCCN1C(=O)SC(CC(=O)Nc2ccc(C)cc2)C1=O (stereo not given),–,"inconclusive [activator, full curve, poor fit]"
CCc1ccc(NC(=O)COC(=O)/C=C/c2ccco2)cc1,inactive: 0.393%,–
COc1cc(/C=C2/SC(=S)N(Cc3ccccc3)C2=O)ccc1O,inactive: -18%,–
CCN=C1SC(C(=O)Nc2ccccc2)CC(=O)N1CC (stereo not given),–,"inconclusive [activator, single point]"
CC(=O)c1cc(C#N)c(SCc2ccccc2C#N)nc1C,–,"inconclusive [activator, single point]"
O=C(NNC(=S)NC(=O)c1ccccc1[N+](=O)[O-])c1ccccc1O,inactive: -1.26%,–
COc1cc(S(=O)(=O)NC2CCCCC2C)ccc1-n1cnnn1 (stereo not given),–,"inconclusive [activator, single point]"
Oc1ccc(C2=NN(c3ccccc3)C(c3ccc(F)cc3)C2)cc1 (stereo not given),–,active: 5.8 µM
Cc1cc(CN(C)C(=O)CC2C(=O)NCCN2Cc2ccc(-c3ccccc3)cc2)on1 (stereo not given),inactive: 3.25%,–
O=C1CC(N(O)c2ccccc2)C(=O)N1c1cc(Cl)cc(Cl)c1 (stereo not given),–,"inconclusive [activator, single point]"
